Tested on: HCC827 ER #15
Assay: Combined use of erlotinib and antibodies in erlotinib resistant cell line, cell number by CCK-8
Assay type: cell-based, human
Settings: 5 days
Experimental: In a 96 well plate, diluted HCC827 ER #15 was seeded at 5000 cells/well in a […] medium (GIBCO) containing 10% FBS, and then, incubated at 37° C. overnight. On the next day, the medium was replaced with a RPMI1640 medium containing 1% FBS (GIBCO), and then, the antibody was serially diluted from 100 ug/ml, and the cells were treated therewith at 100 ul. For co-administration, the cells were treated with 10 nM or 100 nM erlotinib, together with the antibody. After 5 days, the number of cells was measured using a CCK-8 reagent (Dojindo laboratory).

B1: VIG2: bispecific antibody: anti-c-Met antibody coupled via (G4S)2 linker to VEGF receptor 1 Ig2 domain (SEQ ID NO: 114) (antibody)
heavy: EVQLVESGGGLVQPGGSLRLSCAASGFTFTDYYMSWVRQAPGKGLEWLGFIRNKANGYTTEYSASVKGRFTISRDNSKNTLYLQMNSLRAEDTAVYYCARDNWFAYWGQGTLVTVSSASTKGPSVFPLAPSSKSTSGGTAALGCLVKDYFPEPVTVSWNSGALTSGVHTFPAVLQSSGLYSLSSVVTVPSSSLGTQTYICNVNHKPSNTKVDKKVEPKSCDCH[not shown - human IgG1 Fc]GGGGSGGGGSSDTGRPFVEMYSEIPEIIHMTEGRELVIPCRVTSPNITVTLKKFPLDTLIPDGKRIIWDSRKGFIISNATYKEIGLLTCEATVNGHLYKTNYLTHRQTNTI
light: DIQMTQSPSSLSASVGDRVTITCKSSQSLLASGNQNNYLAWYQQKPGKAPKMLIIWASTRVSGVPSRFSGSGSGTDFTLTISSLQPEDFATYYCQQSYSRPYTFGQGTKVEIKRTVAAPSVFIFPPSDEQLKSGTASVVCLLNNFYPREAKVQWKVDNALQSGNSQESVTEQDSKDSTYSLSSTLTLSKADYEKHKVYACEVTHQGLSSPVTKSFNRGEC
With B1 the “synergistic effect of co-administration with erlotinib” value (antibody dilution series with 10 nM or 100 nM erlotinib, FIGS. 4a-4d) was “excellent synergistic effect” and the “growth of cell line on co-administration with erlotinib” value (antibody serially diluted from 100 ug/ml with 10 nM or 100 nM erlotinib, compared to single administration, FIGS. 4a-4c) was “effectively inhibited even at a very low concentration”.

Source: patent US9572878B2, “Method of combination therapy using an EGFR antagonist and anti-c-Met antibody” (SAMSUNG ELECTRONICS CO., LTD., priority 2013, dated 2017)
